Experimental data taken from PubChem BioAssay AID894 (National Center for Advancing Translational Sciences (NCATS), 2007).
The campaign covered roughly 150,000 compounds. About 6,500 (4.3%) were called active. Inconclusive results, whose numbers are uncertain, are shown with a selection of clear calls. Calls follow the shape of the dose curve; as a rule, active = well fitted inhibition curve with a large enough effect (not every such curve was filed as active); inconclusive = small, poorly fitted or top-dose-only effect, or another doubt; inactive = no such curve, though single readings can be large or run the other way. A potency beside an inconclusive call is a rough fit, not a confirmed value.

Molecular target: 15-hydroxyprostaglandin dehydrogenase [NAD(+)] (Homo sapiens) (UniProt P15428)
Sequence of UniProt P15428 (P15428 whole entry, looked up): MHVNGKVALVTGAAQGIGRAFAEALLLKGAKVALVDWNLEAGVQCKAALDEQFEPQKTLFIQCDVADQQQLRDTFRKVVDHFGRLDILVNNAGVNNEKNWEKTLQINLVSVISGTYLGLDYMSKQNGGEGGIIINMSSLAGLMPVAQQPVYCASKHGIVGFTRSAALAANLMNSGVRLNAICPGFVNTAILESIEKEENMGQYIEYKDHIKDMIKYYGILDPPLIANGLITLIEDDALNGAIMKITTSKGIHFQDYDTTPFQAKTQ
Test: qHTS Assay for Inhibitors of HPGD (15-Hydroxyprostaglandin Dehydrogenase)
Details: purified HPGD, NADH fluorescence kinetic, PGE2 substrate; activity change, negative = inhibition: active compounds read low
Procedure, shortened: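 20 nM HPGD preincubated 15 min at room temperature with compound in 50 mM Tris-HCl pH 8, 0.01% Tween 20. Started with 1 mM NAD+ and 30 uM prostaglandin E2; NADH fluorescence (360/450 nm) read 5 times over 30-s intervals, last minus first.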
% is scaled to controls: 0 for no effect and ±100 for the full control effect; potency is read from the fitted curve at half-maximal effect; tags tell the direction and shape of the fitted curve.

Activity change, negative = inhibition, inactive:
CCOC(=O)C(NC(C)=O)(NS(=O)(=O)c1ccccc1)C(F)(F)F (configuration not stated) -0.948%
CCC(C)NCCOc1ccc(Br)cc1 (configuration not stated) 3.51%
CC(=O)C1=C(c2ccccc2)OC(N)=C(C#N)C1c1ccc(O)cc1 (configuration not stated) -12.2%
Cc1nnc(SCCn2c(N3CCCC(C)C3)nc3c2c(=O)n(C)c(=O)n3C)s1 (configuration not stated) 7.54%
CC(C)C(c1nnnn1C(C)(C)C)N1CCOCC1 (configuration not stated) -7.47%
N#CCCn1c(=O)c(CCc2ccccc2)nc2cnc(Oc3cccc(Cl)c3)nc21 0.165%
COC(=O)C1(CC(C)C)C=C2C(=C(C)C(=O)C2C)CN1 (configuration not stated) -17.3%
O=C1NC(c2ccccc2)C(C(=O)c2cccs2)C(O)(C(F)(F)F)N1 (configuration not stated) -1.34%
c1ccc(OCc2nn3c(-c4ccco4)nnc3s2)cc1 -25.4%
CCOC(=O)c1ccc(NC(=O)NC(C)C2CCCO2)cc1 (configuration not stated) -7.63%
Fc1cccc(CSc2ncnc3c2ncn3[C@H]2CCCS2)c1 -24.3%
Cc1ccc2[nH]c(C)c(/C=N/Nc3nc4ccccc4s3)c2c1 -15.9%
CC(=O)Oc1cccc(N2C(=O)c3ccccc3C2=O)c1 -7.4%
COCc1cc(C)nc(SCC(=O)N2CCC(C)CC2)c1C#N -15.8%
CCC(=O)N1CCc2cc(S(=O)(=O)Nc3ccc4c(c3)OCCO4)ccc21 -1.65%
COc1cccc(CNC(=O)C(=O)NCC2CCCO2)c1 (configuration not stated) -4.24%
Oc1ccc(Cl)cc1C1=NCCNC(C(F)(F)C(F)F)=C1 -0.739%
Cc1ncc(S(=O)(=O)c2ccccc2)c(-c2ccccc2)n1 -4.02%
Cc1cnc(C(=O)Nc2ccc(F)cc2)cn1 -22.6%
COc1ccc(C(=O)OCC(N)=O)cc1[N+](=O)[O-] 0.553%
COC(=O)CC1Oc2cc3oc4c5ccccc5oc(=O)c4c3cc2O1 (configuration not stated) -17.8%
CCN(CC)CCc1c(C)[nH]c(C(=O)OCc2ccccc2)c1C -3.03%
Nc1c(-c2cccc([N+](=O)[O-])c2)nc2ccccn12 -22%

Activity change, negative = inhibition, inconclusive:
CCOC(=O)C1C(=O)C=C(c2ccc([N+](=O)[O-])cc2)CC1c1ccccc1 (configuration not stated) -31.4% [inhibitor]

Potency, inconclusive:
CC(C)CN1C(=O)c2ccc(NC(=O)c3ccccc3F)cc2C1=O 20 µM [inhibitor, partial curve]
Cc1c(C(=O)OCC(=O)N(CCC#N)c2ccccc2)oc2c1ccc1ccccc12 31.6 µM [inhibitor, partial curve]
COc1ccc2cc(-c3cc(C(=O)OCC(=O)NC4CCS(=O)(=O)C4)c4ccccc4n3)ccc2c1 (configuration not stated) 25.1 µM [inhibitor, partial curve]
c1ccc(Cn2ccc(-c3cnc(-c4ccccc4)s3)n2)cc1 28.2 µM [inhibitor, partial curve]
COC(=O)c1c(-c2cccs2)csc1NC(=O)CSc1ncnc2sc(C)c(C)c12 28.2 µM [inhibitor, single point]
CCOC(=O)c1[nH]c2cc(OC)c(OC)cc2c1NC(=O)CN1CCN(C)CC1 28.2 µM [inhibitor, partial curve]
CCCOc1ccc(-c2nnc(-c3ccncc3)o2)cc1 14.1 µM [inhibitor, partial curve]
COc1ccc(NS(=O)(=O)c2cc(NC(=O)/C=C/c3cc(OC)c(OC)c(OC)c3)ccc2N2CCCCC2)cc1 28.2 µM [inhibitor, single point]
O=C1OC(Nc2ccc3ncccc3c2)c2ccccc21 (configuration not stated) 28.2 µM [inhibitor, partial curve]
CN1/C(=C/C(=O)c2nc(S(C)(=O)=O)ncc2Cl)C(C)(C)c2ccccc21 31.6 µM [inhibitor, single point]
CCn1c(SCC(=O)Nc2ccc(-c3nc4ccc(C)cc4s3)cc2)nnc1-c1ccccc1 31.6 µM [inhibitor, partial curve]
COc1cccc2c(=O)c(C/C=C(/C)Cl)c(C)[nH]c12 28.2 µM [inhibitor, partial curve]
Nc1ccc(-c2nnc(-c3ccc(-c4ccccc4)cc3)o2)cc1 11.2 µM [inhibitor, partial curve]
CCOC(=O)C1=C(C)NC(C)=C(C(=O)OCC)C1C(=O)OCC(=O)c1ccc2c(c1)OCCO2 20 µM [inhibitor, partial curve]
O=C(N/N=C/c1ccc2ccccc2c1)c1ccc(COc2ccc3c(c2)CCC3)o1 22.4 µM [inhibitor, partial curve]
CN(CCOc1ccc(Cl)cc1)c1ccc(S(=O)(=O)N2CCCCC2)cn1 25.1 µM [inhibitor, partial curve]
CCOc1cc(S(=O)(=O)N(CC)CC)c(OCC)cc1-n1cnnn1 28.2 µM [inhibitor, partial curve]
Cc1ccc(C)c(Cc2c(C)nc3c(C(=O)NCc4ccc5c(c4)OCO5)cnn3c2C)c1 31.6 µM [inhibitor, partial curve]
COc1ccc2c(c1)c1ncnc(N3CCN(Cc4ccc5c(c4)OCO5)CC3)c1n2C 20 µM [inhibitor, partial curve]
O=C1CC(c2ccc(O)c(O)c2)Oc2cc(O)cc(O)c21 (configuration not stated) 12.6 µM [inhibitor, partial curve]
CC(C)Cn1c(-c2ccc(C#N)cc2)nc2c1c(=O)[nH]c(=O)n2CC(C)C 14.1 µM [inhibitor, partial curve]
CCOc1cc2nc(-c3ccc(OC)c(OC)c3)nc(N3CC(C)OC(C)C3)c2cc1OC (configuration not stated) 15.8 µM [inhibitor, partial curve]
CC(C)(C)C1CCc2c(sc(NC(=O)c3cc(C4CC4)on3)c2C#N)C1 (configuration not stated) 28.2 µM [inhibitor, partial curve]
O=C(c1ccccc1)n1nnc2ccccc21 22.4 µM [inhibitor, partial curve]
Cc1ccccc1Cc1c(C)nc2nc(SCC(=O)NCc3ccco3)nn2c1C 28.2 µM [inhibitor, single point]
CC(=O)OC[C@H]1O[C@@H](Sc2cccc3cccnc23)[C@H](OC(C)=O)[C@@H](OC(C)=O)[C@@H]1OC(C)=O 28.2 µM [inhibitor, partial curve]
Cc1c(NC(=S)N/N=C/c2ccc(O)cc2)c(=O)n(-c2ccccc2)n1C 31.6 µM [inhibitor, partial curve]
COc1cccc(/C=N/NC(=O)CC2C(=O)NN=C2C)c1OC (configuration not stated) 28.2 µM [inhibitor, single point]
N/C(=N\OC(=O)c1cc(-c2ccccc2)nc2ccccc12)c1cccnc1 31.6 µM [inhibitor, partial curve]
Cn1c(/C=N/n2cnnc2)nc2ccccc21 31.6 µM [inhibitor, partial curve]
Cc1cccc(-c2nsc(SCC(=O)N3CCCC3)n2)c1 31.6 µM [inhibitor, single point]
COc1ccc(-n2cc(C(=O)c3cc4ccccc4oc3=O)c(C(C)=O)n2)cc1 22.4 µM [inhibitor, partial curve]
O=C(c1cccs1)n1nc(-c2ccco2)nc1SCc1ccccc1 28.2 µM [inhibitor, partial curve]
CCNC(=O)COC(=O)c1cc(-c2ccc(OC)cc2)nc2ccccc12 22.4 µM [inhibitor, partial curve]
CCOC(=O)CNCCC(=O)c1ccc(Br)cc1 35.5 µM [inhibitor, single point]
CC(=O)Nc1ccc(Oc2cc(C#N)c(C#N)cc2N2CCCCCC2)cc1 28.2 µM [inhibitor, partial curve]
COCCNc1nc(-n2nc(C)cc2C)nc2sc3c(c12)CCCC3 22.4 µM [inhibitor, partial curve]
CCOC(=O)c1c(NC(=O)C2COc3ccccc3O2)sc2c1CCN(Cc1ccccc1)C2 (configuration not stated) 31.6 µM [inhibitor, partial curve]

Potency, active:
O=C(c1cc(-c2cccc(O)c2)on1)N1CCCCC1 4.47 µM
Cc1cccc(N2C(=O)CC(Sc3nnc(C)s3)C2=O)c1 (configuration not stated) 25.1 µM
O=C(Nc1ccccc1)Nc1ccc(C(=O)N2CCOCC2)cc1 15.8 µM
COc1ccc(Br)cc1CN(C)CC(=O)Nc1c(Cl)cccc1Cl 15.8 µM
Cc1cc(C(F)(F)F)c2c(=O)[nH]c(=O)n(Cc3ccccc3)c2n1 10 µM
Cc1sc(NC(=O)/C=C/C(=O)O)c(C(N)=O)c1-c1ccc(C(C)(C)C)cc1 25.1 µM
Oc1cc2c(cc1O)[C@H](c1ccccc1)CNCC2 28.2 µM
C=CCn1c(SCC(=O)c2ccc(Cl)cc2)nnc1-c1ccc2c(c1)OCO2 8.91 µM
COc1cc(NC(=S)Nc2cccnc2)cc(OC)c1 28.2 µM
O=c1oc2ccccc2c(O)c1/C=C1\C=Nc2ccccc21 2.24 µM
